# In PubChem BioAssay AID2546 (National Center for Advancing Translational Sciences (NCATS), 2010):
# Values joined by “and” are separate entries in the source; they are usually repeats but may differ in a detail not shown here. Equal entries are not always repeated. The campaign covered roughly 310,000 compounds. About 11,000 (3.5%) were called active. The inconclusive results got no clear call from the source; some entries with a clear call stand among them for comparison. The call rests on the fitted dose curve; in most records, active means well fitted inhibition curve with a large enough effect; inconclusive means small, poorly fitted or top-dose-only effect, or effect the other way; inactive means flat fitted curve, though single readings scatter. Potencies of inconclusive entries are doubtful fits and often do not repeat.
# Assay: VP16 counterscreen qHTS for inhibitors of ROR gamma transcriptional activity;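 further: Gal4-VP16 expression switched on by copper sulfate through the metallothionein promoter; nearly all actives have a fitted effect of over 50% in size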
# Conditions: Drosophila S2 Gal4-VP16 UAS-luciferase, luminescence, 20 h; activity, negative = inhibition: at 53.6 µM (top of the series)
# On the % scale 0 is the no-effect control and ±100 the full control effect; potency means the concentration at half of the fitted maximal effect; tags describe the fitted curve by direction and shape.
SMILES,"activity, negative = inhibition",Potency
O=C(CNS(=O)(=O)c1ccc(Br)s1)N1CCN(c2ccc(F)cc2)CC1,inactive: 4.75%,–
Cc1sc2ncnc(N/N=C/c3ccc(O)cc3)c2c1C,–,active: 4.47 µM
COc1cccc(C(=O)/C=C/Nc2cccc(O)c2)c1,–,active: 1.26 µM
Cc1cc(-c2n[nH]c(=S)n2/N=C/c2ccc(Cl)c([N+](=O)[O-])c2)n[nH]1,–,"inconclusive: 3.55 µM [activator, single point]"
CCOC(=S)SCC(=O)Nc1nc(C)c(C)s1,–,"inconclusive: 35.5 µM [inhibitor, single point]"
Cc1[nH]c(-c2ccccn2)nc(=S)c1Cl,–,"inconclusive: 35.5 µM [inhibitor, single point]"
COc1cc(/C=C/C(=O)/C=C(O)/C=C/c2ccc(O)c(OC)c2)ccc1O,–,"inconclusive: 22.4 µM [inhibitor, single point] and inconclusive: 35.5 µM [inhibitor, single point]"
CC(=O)c1cccc(NC(=O)c2cc(S(=O)(=O)N3CCOCC3)cs2)c1,inactive: -8.12%,–
COc1ccccc1NC(=O)C(C)N1CCN(C/C=C/c2ccccc2)CC1 (stereo not given),–,"inconclusive: 35.5 µM [inhibitor, single point]"
COc1ccc(N(Cc2cc(=O)[nH]c3ccccc23)C(=O)CCl)cc1,–,"inconclusive: 35.5 µM [inhibitor, single point]"
Cc1nnc(Oc2ccccc2)c2ccccc12,–,"inconclusive: 35.5 µM [inhibitor, single point]"
Cc1cc(NCCCn2ccnc2)n2nc(-c3ccc(Cl)cc3)cc2n1,–,"inconclusive: 35.5 µM [inhibitor, single point]"
CN(C(=O)c1ccccc1)c1nc2ccccc2s1,–,"inconclusive: 14.1 µM [inhibitor, single point]"
S=C(NCCc1ccccc1)N/N=C/c1ccccc1Cl,–,"inconclusive: 35.5 µM [inhibitor, single point]"
CCOC(=S)SCC(=O)Nc1ncc(C)s1,–,"inconclusive: 28.2 µM [inhibitor, single point]"
Fc1ccc(N2CCN(Cc3cnc(Oc4ccc(Br)cc4)s3)CC2)cc1,–,"inconclusive: 31.6 µM [inhibitor, single point]"
CC(C)(C)c1ccc(S(=O)(=O)N2CCCC2C(=O)NC2=NCCS2)cc1 (stereo not given),–,"inconclusive: 28.2 µM [inhibitor, single point]"
O=C(Nc1ccc(S(=O)(=O)N2CCCC2)cc1)c1ccc(OCC2CCCO2)cc1 (stereo not given),–,"inconclusive: 35.5 µM [inhibitor, single point]"
O=C1c2ccccc2-c2onc3ccc(Oc4ccccc4)c1c23,–,"inconclusive: 3.98 µM [inhibitor, single point]"
CN1CCN(C(c2ccc(Br)cc2)c2cc(Cl)c3cccnc3c2O)CC1 (stereo not given),–,active: 0.794 µM
Cn1cc(C=O)c2cc(F)ccc21,inactive: 7.36%,–
O=C(CSc1nnc(SCc2ccccc2)s1)N/N=C/C=C/c1ccco1,–,"inconclusive: 12.6 µM [inhibitor, partial curve]"
CC(NC(=O)/C(C#N)=C/c1ccc(Cl)c([N+](=O)[O-])c1)c1ccccc1 (stereo not given),–,"inconclusive: 1 µM [inhibitor, single point]"

SMILES,"activity, negative = inhibition",Potency
CCc1ccc2[nH]c(=O)c(CN(CCO)C(=O)NCc3ccccc3)cc2c1,–,"inconclusive: 35.5 µM [inhibitor, single point]"
CCOC(=O)N1CCC(N(C(=O)Nc2ccc(Cl)c(Cl)c2)C(C)CC)CC1 (stereo not given),–,"inconclusive: 35.5 µM [inhibitor, single point]"
CC(C)(C)OC(=O)C(Cc1ccc(OC(C)(C)C)cc1)NC(=O)CNC(=O)OCc1ccccc1 (stereo not given),–,"inconclusive: 4.47 µM [activator, single point]"
Cc1ccc2nc(-c3ccc(NC(=O)COC(=O)c4ccc(=O)[nH]c4)cc3)sc2c1,–,active: 5.01 µM
N=C1SCC(=O)N1c1ncc(Cc2cccc(Cl)c2)s1,–,active: 0.891 µM
Oc1c(Cl)cc(Cl)c2cccnc12,–,"inconclusive: 2240 µM [inhibitor, partial curve, poor fit]"
CCN(CC)S(=O)(=O)c1cccc(C(=O)N/N=C/c2ccccn2)c1,–,"inconclusive: 35.5 µM [inhibitor, single point]"
CC(=O)c1sc(Nc2nc3ccc(F)cc3s2)nc1C,–,active: 11.2 µM
CCNC(=S)N/N=C(\C)c1ccc2ccccc2c1OC(F)F,–,active: 7.08 µM
CCOC(=O)c1nn(-c2ccccc2)c(C#N)c1NC(=O)c1nn(CC)cc1Br,inactive: -25.7%,–
COCCN1C(=O)c2[nH]nc(-c3ccccc3O)c2C1c1ccc(OC)cc1 (stereo not given),inactive: 0.93%,–
COc1cc(/C=N\NC(=O)c2ccc(-c3ccccc3)cc2)cc(OC)c1O,–,"inconclusive: 22.4 µM [inhibitor, single point]"
CC1CC(C)(C)NC(=S)N1CCCC(=O)Nc1ccc(F)c(F)c1 (stereo not given),–,"inconclusive: 28.2 µM [inhibitor, single point]"
CC(C)Cc1cc(CN2CCC(CO)(Cc3cccc(C(F)(F)F)c3)CC2)[nH]n1,–,"inconclusive: 11.2 µM [inhibitor, partial curve]"
COc1cc2c(cc1OC)C(C)N(C(=O)c1cc3c(=O)oc4ccc(C)cc4c3s1)CC2 (stereo not given),inactive: -21.5%,–
CN1C(=O)/C(=C/c2cn(CC(=O)N3CCCCC3)c3ccccc23)NC1=S,–,"inconclusive: 17.8 µM [inhibitor, single point]"
O=C1c2ccccc2C(=O)C1c1ccncc1,–,active: 11.2 µM
CC1=C(C(N)=O)C(c2cccs2)n2ncnc2N1 (stereo not given),inactive: -7.8%,–
COc1ccc(CCNCC(=O)N2C(C)CCCC2C)cc1OC (stereo not given),inactive: -2.87%,–
O=C(Nc1ccccc1)c1oc2ccccc2c1NC(=O)C1CC1,–,"inconclusive: 35.5 µM [inhibitor, partial curve]"
O=[N+]([O-])c1ccc(S(=O)(=O)Nc2ccc(-c3csc(-c4ccccc4)n3)cc2)cc1,–,"inconclusive: 15.8 µM [inhibitor, single point]"
NC(=O)c1c(NC(=O)CCCC(=O)O)sc2c1CCCCCC2,–,"inconclusive: 11.2 µM [inhibitor, partial curve]"
